# In PubChem BioAssay AID192 (DTP/NCI, 2004):
# Toxic doses and inconclusive results are not listed. A number of entries come with more than one value. This list holds those alone. There may be further records. Values that stand side by side do not match, cause unknown; dose, time, organism, isomer or construct need not be as stated for each record. What stands in brackets tells the records apart. Letters count within one entry.
# Test system: BDF1 mice, B16 melanoma ip, median survival T/C
# Assay: NCI In Vivo Anticancer Drug Screen. Data for tumor model B16 Melanoma (intraperitoneal) in B6D2F1 (BDF1) mice
# Settings: endpoint: median survival time, higher = longer survival
# Method: The antitumor activity of compounds was measured in mice bearing transplantable tumors. Survival or tumor size were measured and the results are expressed as the measurement made in the treated group (T) divided by the measurement made in the vehicle treated control group (C). The tumor model used in this assay is B16 Melanoma (intraperitoneal) in B6D2F1 (BDF1) mice
# [1] = dose: 5.0 mg/kg/injection, schedule: Q01DX001 (ip), vehicle: water
compound,measurement,setting,value
COc1cccc2c1C(=O)c1c(O)c3c(c(O)c1C2=O)C[C@@](O)(/C(C)=N\NC(=O)CO)C[C@@H]3OC1CC(N)C(O)C(C)O1 (some centres not stated),T/C,[1],119 % of control and 154 % of control
O=NN(CCCl)C(=O)NCCCl,T/C,"dose: 10.0 mg/kg/injection, schedule: Q04DX003 (ip), vehicle: saline + alcohol",118 % of control and 187 % of control
COc1cccc2c1C(=O)c1c(O)c3c(c(O)c1C2=O)C[C@@](O)(/C(CO)=N/NC(=O)c1ccc(Cl)c(Cl)c1)C[C@@H]3OC1CC(N)C(O)C(C)O1 (some centres not stated),T/C,"dose: 2.5 mg/kg/injection, schedule: Q01DX001 (ip), vehicle: water",110 % of control and 160 % of control
same,T/C,[1],116 % of control and 156 % of control
COc1cccc2c1C(=O)c1c(O)c3c(c(O)c1C2=O)C[C@@](O)(C(C)=O)C[C@@H]3OC1CC(N)C(O)C(C)O1 (some centres not stated),T/C,"dose: 0.25 mg/kg/injection, schedule: Q04DX003 (ip), vehicle: saline",119 % of control and 186 % of control
CCCCNC(C)C1(O)Cc2c(O)c3c(c(O)c2C(OC2CC(N)C(O)C(C)O2)C1)C(=O)c1c(OC)cccc1C3=O (configuration not stated),T/C,"dose: 25.0 mg/kg/injection, schedule: Q01DX001 (ip), vehicle: water",104 % of control and 178 % of control
CC[C@]12CN3CCc4c([nH]c5ccccc45)[C@@](C(=O)OC)(c4cc5c(cc4OC)N(C)[C@H]4[C@@](O)(C(=O)OC)[C@H](OC(C)=O)[C@]6(CC)C=CCN7CC[C@]54[C@@H]76)CC(C3)[C@H]1O2 (some centres not stated),T/C,"dose: 1.5 mg/kg/injection, schedule: Q01DX009 (ip), vehicle: saline","119 % of control [sample A] and 114 % of control, 176 % of control [sample B]"
